Some of the results follow. Viral Rep nickase domains cut single-stranded DNA in vitro at 3 µM enzyme and 37 °C for 1 h; the strands have 90 letters, of which the middle is given. Values are log2 of uncut reads against the no-enzyme pool; more negative means more cut, near 0 not cut, and no call is made. The scaling is to total reads, so uncut sequences can rise above 0 when many others are cut.

In this assay the test system is T1, Rep nickase domain of tomato golden mosaic virus.
T1 sequence (Rep 1-124, printed without the tag): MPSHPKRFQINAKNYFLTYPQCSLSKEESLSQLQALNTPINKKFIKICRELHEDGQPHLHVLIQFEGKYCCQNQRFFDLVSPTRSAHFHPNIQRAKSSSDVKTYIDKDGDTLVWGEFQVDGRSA
The assay can be described thus: uncleaved DNA left, log2 of reads against the no-enzyme library (log2 ratio); higher = less cleavage (more negative = more Rep cleavage of the k-mer); sequences stand for … in CTCGTCCG…ACCGGAGA
On the procedure: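 A pool of 90-nt single-stranded DNAs with seven random bases just before the constant AC of the nick site (name = the seven bases) was cut by 3 µM recombinant His6-SUMO-tagged Rep nickase domain (300 nM DNA, 50 mM HEPES pH 8.0, 50 mM NaCl, 1 mM MnCl2, 1 h, 37 °C, three replicates). Uncut DNA was amplified and sequenced.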
In the case of TGACGTA, the “uncleaved DNA left (log2)” value was -0.00483.

Regarding CCTCGTC, the “uncleaved DNA left (log2)” value was -0.193.

On to GTCTCTA, for which the “uncleaved DNA left (log2)” value worked out at 0.188.

With ACCACAG, the “uncleaved DNA left (log2)” value is 0.0276.

For the sequence TAGGGAT, the “uncleaved DNA left (log2)” value worked out at 0.11.

Regarding ATTGCGA, the “uncleaved DNA left (log2)” value worked out at 0.0556.

TGCATCC: the “uncleaved DNA left (log2)” value was -0.089.

In the case of TAAGATT, the “uncleaved DNA left (log2)” value was -3.74.

On to TGTCTCT, for which the “uncleaved DNA left (log2)” value was -0.0339.

Turning to TAAAGTT, the “uncleaved DNA left (log2)” value is -3.53.

With AGCGCCA, the “uncleaved DNA left (log2)” value worked out at 0.116.

On to ACCGGTG, for which the “uncleaved DNA left (log2)” value stood at 0.0813.

Take TGCGGTC: the “uncleaved DNA left (log2)” value was -0.00739.

In the case of TGATAAT, the “uncleaved DNA left (log2)” value is -0.02.

Turning to CCTACCC, the “uncleaved DNA left (log2)” value was -0.0351.

For TGATAAC, the “uncleaved DNA left (log2)” value was 0.0698.

For GACAAAG, the “uncleaved DNA left (log2)” value was found to be 0.0733.

With CCGGTTG, the “uncleaved DNA left (log2)” value is -0.0753.

For CAGGCAA, the “uncleaved DNA left (log2)” value came out at 0.0567.

With GATGATA, the “uncleaved DNA left (log2)” value is 0.173.

Consider ATGCGAT, for which the “uncleaved DNA left (log2)” value is -0.00639.

Consider ACACCGG, for which the “uncleaved DNA left (log2)” value was found to be 0.0217.

In the case of CAGGGGT, the “uncleaved DNA left (log2)” value is -0.0532.

Take TGCGCCG: the “uncleaved DNA left (log2)” value is -0.0662.

With GATATCA, the “uncleaved DNA left (log2)” value stood at 0.0649.

With AATGCCT, the “uncleaved DNA left (log2)” value was 0.0469.

With GTTTTCG, the “uncleaved DNA left (log2)” value was -0.0108.

Consider AGTTCTT, for which the “uncleaved DNA left (log2)” value amounted to 0.0132.

Take GAATACT: the “uncleaved DNA left (log2)” value was -2.92.

With TCCATAT, the “uncleaved DNA left (log2)” value stood at 0.00751.

Turning to ATATTTA, the “uncleaved DNA left (log2)” value stood at 0.0159.

Regarding AGTCACT, the “uncleaved DNA left (log2)” value is -0.0238.

Take GAGGCTA: the “uncleaved DNA left (log2)” value was 0.0319.

For the sequence AACCCAA, the “uncleaved DNA left (log2)” value was -0.025.

In the case of AAGGGTT, the “uncleaved DNA left (log2)” value is 0.0703.

As for TCTGTCC, the “uncleaved DNA left (log2)” value is -0.0931.

With CTTTAGT, the “uncleaved DNA left (log2)” value is -0.0625.

For the sequence ACAAATG, the “uncleaved DNA left (log2)” value came out at 0.0993.

Regarding CGGTTTC, the “uncleaved DNA left (log2)” value is -0.0235.

For ACTGTGT, the “uncleaved DNA left (log2)” value came out at 0.0208.

The values above are taken from the supplement of paper PMC7826260.
